# The other results are listed elsewhere or left out.
# B1: Fm1D (Escherichia coli) (protein)
# chain: FSCNVDGGSSIGAGTTSVYVNLDPVIQPGQNLVVDLSQHISCWNDYGGWYDTDHINLVQGSAFAGSLQSYKGSLYWNNVTYPFPLTTNTNVLDIGDKTPMPLPLKLYITPVGAAGGVVIKAGEVIARIHMYKIATLGSGNPRNFTWNIISNNSVVMPTHHHHHH
# Assays:
# Assay in all cases: glycan array binding signal (z-score within array); higher = stronger binding
# Details in all cases: glycan notation: IUPAC condensed, linker removed
# [1] = molecular target: GlcNAc(b1-4)[GlcNAc(b1-6)]GalNAc
# Procedure, shortened: (§1)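 From the Consortium for Functional Glycomics database, 3228 arrays were curated, keeping only those whose protein sequence was available. Binding is given as a within-array Z-score averaged across arrays sharing a protein sequence and across linkers. Negative Z-scores can be read as non-binding.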
# [2] = molecular target: GlcNAc(b1-6)Gal(b1-4)GlcNAc
# Procedure, shortened: as §1
# [3] = molecular target: GlcNAc(b1-6)GalNAc
# Procedure, shortened: as §1
# [4] = molecular target: GlcNAc6S(b1-3)Gal(b1-4)GlcNAc
# Procedure, shortened: as §1
# [5] = molecular target: Kdn(a2-3)Gal(b1-3)GalNAc
# Procedure, shortened: as §1
# [6] = molecular target: Kdn(a2-3)Gal(b1-3)GlcNAc
# Procedure, shortened: as §1
# [7] = molecular target: Kdn(a2-3)Gal(b1-4)Glc
# Procedure, shortened: as §1
# [8] = molecular target: Kdn(a2-3)Gal(b1-4)GlcNAc
# Procedure, shortened: as §1
# [9] = molecular target: Kdn(a2-3)Gal(b1-4)[Fuc(a1-3)]GlcNAc
# Procedure, shortened: as §1
# [10] = molecular target: Kdn(a2-6)Gal(b1-4)GlcNAc
# Procedure, shortened: as §1
# [11] = molecular target: Man(a1-2)Man(a1-2)Man(a1-3)Man
# Procedure, shortened: as §1
# [12] = molecular target: Man(a1-2)Man(a1-2)Man(a1-6)[Man(a1-3)]Man
# Procedure, shortened: as §1
# [13] = molecular target: Man(a1-2)Man(a1-3)Man
# Procedure, shortened: as §1
# [14] = molecular target: Man(a1-2)Man(a1-3)[Man(a1-2)Man(a1-6)]Man
# Procedure, shortened: as §1
# [15] = molecular target: Man(a1-2)Man(a1-3)[Man(a1-2)Man(a1-6)]Man(a1-6)[Man(a1-2)Man(a1-2)Man(a1-3)]Man
# Procedure, shortened: as §1
# [16] = molecular target: Man(a1-2)Man(a1-3)[Man(a1-2)Man(a1-6)]Man(a1-6)[Man(a1-2)Man(a1-2)Man(a1-3)]Man(b1-4)GlcNAc(b1-4)GlcNAc
# Procedure, shortened: as §1
# [17] = molecular target: Man(a1-2)Man(a1-3)[Man(a1-6)]Man(a1-6)[Man(a1-2)Man(a1-3)]Man(b1-4)GlcNAc(b1-4)GlcNAc
# Procedure, shortened: as §1
# [18] = molecular target: Man(a1-2)Man(a1-6)[Man(a1-3)]Man(a1-6)[Man(a1-2)Man(a1-2)Man(a1-3)]Man
# Procedure, shortened: as §1
# [19] = molecular target: Man(a1-2)Man(a1-6)[Man(a1-3)]Man(a1-6)[Man(a1-2)Man(a1-2)Man(a1-3)]Man(b1-4)GlcNAc(b1-4)GlcNAc
# Procedure, shortened: as §1
# [20] = molecular target: Man(a1-3)[Man(a1-6)]Man
# Procedure, shortened: as §1
# [21] = molecular target: Man(a1-3)[Man(a1-6)]Man(a1-6)[Man(a1-2)Man(a1-3)]Man(b1-4)GlcNAc(b1-4)GlcNAc
# Procedure, shortened: as §1
# [22] = molecular target: Man(a1-3)[Man(a1-6)]Man(a1-6)[Man(a1-3)]Man
# Procedure, shortened: as §1
# [23] = molecular target: Man(a1-3)[Man(a1-6)]Man(a1-6)[Man(a1-3)]Man(b1-4)GlcNAc(b1-4)GlcNAc
# Procedure, shortened: as §1
# [24] = molecular target: Man(a1-3)[Man(a1-6)]Man(b1-4)GlcNAc(b1-4)GlcNAc
# Procedure, shortened: as §1
# [25] = molecular target: Man(a1-3)[Man(a1-6)]Man(b1-4)GlcNAc(b1-4)[Fuc(a1-6)]GlcNAc
# Procedure, shortened: as §1
# [26] = molecular target: Man(a1-6)Man
# Procedure, shortened: as §1
# [27] = molecular target: Man(b1-4)GlcNAc
# Procedure, shortened: as §1
# [28] = molecular target: MurNAc(b1-4)GlcNAc
# Procedure, shortened: as §1
# [29] = molecular target: Neu5Ac(a2-3)Gal
# Procedure, shortened: as §1
# [30] = molecular target: Neu5Ac(a2-3)Gal(b1-3)GalNAc
# Procedure, shortened: as §1
# [31] = molecular target: Neu5Ac(a2-3)Gal(b1-3)GalNAc(b1-3)Gal(a1-4)Gal(b1-4)Glc
# Procedure, shortened: as §1
# [32] = molecular target: Neu5Ac(a2-3)Gal(b1-3)GalNAc(b1-4)[Neu5Ac(a2-3)]Gal(b1-4)Glc
# Procedure, shortened: as §1
# [33] = molecular target: Neu5Ac(a2-3)Gal(b1-3)GalNAc(b1-4)[Neu5Ac(a2-8)Neu5Ac(a2-3)]Gal(b1-4)Glc
# Procedure, shortened: as §1
# [34] = molecular target: Neu5Ac(a2-3)Gal(b1-3)GalNAc6S
# Procedure, shortened: as §1
# [35] = molecular target: Neu5Ac(a2-3)Gal(b1-3)GlcNAc
# Procedure, shortened: as §1
# [36] = molecular target: Neu5Ac(a2-3)Gal(b1-3)GlcNAc(b1-2)Man
# Procedure, shortened: as §1
# [37] = molecular target: Neu5Ac(a2-3)Gal(b1-3)GlcNAc(b1-2)Man(a1-3)[GlcNAc(b1-4)][Neu5Ac(a2-3)Gal(b1-3)GlcNAc(b1-2)Man(a1-6)]Man(b1-4)GlcNAc(b1-4)GlcNAc
# Procedure, shortened: as §1
# [38] = molecular target: Neu5Ac(a2-3)Gal(b1-3)GlcNAc(b1-2)Man(a1-3)[Neu5Ac(a2-3)Gal(b1-3)GlcNAc(b1-2)Man(a1-6)]Man(b1-4)GlcNAc(b1-4)GlcNAc
# Procedure, shortened: as §1
# [39] = molecular target: Neu5Ac(a2-3)Gal(b1-3)GlcNAc(b1-3)Gal(b1-3)GlcNAc
# Procedure, shortened: as §1
# [40] = molecular target: Neu5Ac(a2-3)Gal(b1-3)GlcNAc(b1-3)Gal(b1-4)GlcNAc
# Procedure, shortened: as §1
# [41] = molecular target: Neu5Ac(a2-3)Gal(b1-3)GlcNAc(b1-3)GalNAc
# Procedure, shortened: as §1
# [42] = molecular target: Neu5Ac(a2-3)Gal(b1-3)GlcNAc(b1-4)Gal(b1-4)Glc
# Procedure, shortened: as §1
# [43] = molecular target: Neu5Ac(a2-3)Gal(b1-3)GlcNAc(b1-6)GalNAc
# Procedure, shortened: as §1
# [44] = molecular target: Neu5Ac(a2-3)Gal(b1-3)GlcNAc6S
# Procedure, shortened: as §1
# [45] = molecular target: Neu5Ac(a2-3)Gal(b1-3)[Fuc(a1-4)]GlcNAc
# Procedure, shortened: as §1
binder,measurement,setting,value
B1,glycan array binding signal (z-score),[1],-0.144
same,glycan array binding signal (z-score),[2],-0.134
same,glycan array binding signal (z-score),[3],-0.11
same,glycan array binding signal (z-score),[4],-0.144
same,glycan array binding signal (z-score),[5],-0.14
same,glycan array binding signal (z-score),[6],-0.145
same,glycan array binding signal (z-score),[7],-0.144
same,glycan array binding signal (z-score),[8],-0.146
same,glycan array binding signal (z-score),[9],-0.13
same,glycan array binding signal (z-score),[10],-0.151
same,glycan array binding signal (z-score),[11],-0.145
same,glycan array binding signal (z-score),[12],-0.142
same,glycan array binding signal (z-score),[13],-0.148
same,glycan array binding signal (z-score),[14],-0.147
same,glycan array binding signal (z-score),[15],-0.148
same,glycan array binding signal (z-score),[16],-0.141
same,glycan array binding signal (z-score),[17],-0.153
same,glycan array binding signal (z-score),[18],-0.147
same,glycan array binding signal (z-score),[19],-0.144
same,glycan array binding signal (z-score),[20],-0.142
same,glycan array binding signal (z-score),[21],-0.144
same,glycan array binding signal (z-score),[22],-0.147
same,glycan array binding signal (z-score),[23],-0.14
same,glycan array binding signal (z-score),[24],-0.144
same,glycan array binding signal (z-score),[25],-0.142
same,glycan array binding signal (z-score),[26],-0.15
same,glycan array binding signal (z-score),[27],-0.148
same,glycan array binding signal (z-score),[28],-0.142
same,glycan array binding signal (z-score),[29],-0.147
same,glycan array binding signal (z-score),[30],-0.146
same,glycan array binding signal (z-score),[31],-0.129
same,glycan array binding signal (z-score),[32],-0.151
same,glycan array binding signal (z-score),[33],-0.145
same,glycan array binding signal (z-score),[34],-0.141
same,glycan array binding signal (z-score),[35],-0.143
same,glycan array binding signal (z-score),[36],-0.135
same,glycan array binding signal (z-score),[37],-0.139
same,glycan array binding signal (z-score),[38],-0.145
same,glycan array binding signal (z-score),[39],-0.148
same,glycan array binding signal (z-score),[40],-0.141
same,glycan array binding signal (z-score),[41],-0.147
same,glycan array binding signal (z-score),[42],-0.143
same,glycan array binding signal (z-score),[43],-0.129
same,glycan array binding signal (z-score),[44],-0.143
same,glycan array binding signal (z-score),[45],-0.134

# From the supplement of paper PMC8728848
